Data from the supplement of paper PMC12217912.
The other results are listed elsewhere or left out. Sequences were assembled here from the parent chain. Inactive controls read about 0.05.

B1: TEV protease; numbered along this chain (parent)
chain: MGESLFKGPRDYNPISSSICHLTNESDGHTTSLYGIGFGPFIITNKHLFRRNNGTLVVQSLHGVFKVKDTTTLQQHLVDGRDMIIIRMPKDFPPFPQKLKFREPQREERICLVTTNFQTKSMSSMVSDTSCTFPSGDGIFWKHWIQTKDGQCGSPLVSTRDGFIVGIHSASNFTNTNNYFTSVPKNFMELLTNQEAQQWVSGWRLNADSVLWGGHKVFMVKPEEPFQPVKEATQL

Variants of: B1
Test: raw area under fraction-flipped curve 0-4 h after induction (AUC4h, not background-subtracted), DNA-recorder readout of cleavage of the substrate (dimensionless); higher = more cleavage of the substrate by the protease variant
Details: temperature: 34 °C; time window: 0-4 h after rhamnose induction
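Further: Bxb1 expression induced with 0.2% (w/v) L-rhamnose at OD600 near 0.5, cultures sampled hourly, flipped fraction per protease–substrate barcode pair counted by paired-end Illumina sequencing.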

Variant | area with substrate ENCYFQS | area with substrate ENDYFQS | area with substrate ENEYFQS | area with substrate ENGYFQS | area with substrate ENHYFQS | area with substrate ENIYFQS | area with substrate ENKYFQS | area with substrate ENMYFQS | area with substrate ENNYFQS | area with substrate ENPYFQS | area with substrate ENQYFQS | area with substrate ENRYFQS | area with substrate ENSYFQS | area with substrate ENVYFQS | area with substrate ENTYFQS | area with substrate ENWYFQS | area with substrate ENFYFQS | area with substrate ENYYFQS
MGESLFKGPRDYNPISSSICHLTNESDGHTTSLYGIGFGPFIITNKHLFRRNNGTLVVQSLHGVFKVKDTTTLQQHLVDGRDMIIIRMPKDFPPFPQKLKFREPQREERICLVTTNFQTKSMSSMVSDTSCTFPSGDGIFWKHWIQTKDGQCGSPLVSTRDGFIVGIHSASNFTNTNNYFTSVPKNFMELLTNQEAQQWVSGWRLNADSVLWGGHKVFMVKPEEPFQPVKEASQL [T233S] | 0.0595 | 0.0584 | 0.0446 | 0.0595 | 0.0556 | 0.119 | 0.0641 | 0.148 | 0.0537 | 0.0303 | 0.0644 | 0.0545 | 0.0605 | 0.0756 | – | – | – | –
MGESLFKGPRDYNPISSSICHLTNESDGHTTSLYGIGFGPFIITNKHLFRRNNGTLVVQSLHGVFKVKDTTTLQQHLVDGRDMIIIRMPKDFPPFPQKLKFREPQREERICLVTTNFQTKSMSSMVSDTSCTFPSGDGIFWKHWIQTKDGQCGSPLVSTRDGFIVGIHSASNFTNTNNYFTSVPKNFMELLTNQEAQQWVSGWRLNADSVLWGGHKVFMVKPEEPFQPVKEADQL [T233D] | 0.0732 | 0.0855 | 0.0611 | – | 0.063 | – | – | 0.0792 | 0.0608 | 0.0638 | 0.0643 | 0.0561 | 0.0418 | 0.088 | 0.0586 | – | – | –
MGESLFKGPRDYNPISSSICHLTNESDGHTTSLYGIGFGPFIITNKHLFRRNNGTLVVQSLHGVFKVKDTTTLQQHLVDGRDMIIIRMPKDFPPFPQKLKFREPQREERICLVTTNFQTKSMSSMVSDTSCTDPSGDGIFWKHWIQTKDGQCGSPLVSTRDGFIVGIHSASNFTNTNNYFTSVPKNFMELLTNQEAQQWVSGWRLNADSVLWGGHKVFMVKPEEPFQPVKEATQL [F133D] | – | 0.0482 | 0.0565 | – | 0.0628 | – | – | – | – | 0.087 | 0.0577 | 0.0411 | 0.0705 | 0.0928 | – | 0.0365 | – | –
MGESLFKGPRRYNPISSSICHLTNESDGHTTSLYGIGFGPFIITNKHLFRRNNGTLVVQSLHGVFKVKDTTTLQQHLVDGRDMIIIRMPKDFPPFPQKLKFREPQREERICLVTTNFQTKSMSSMVSDTSCTFPSGDGIFWKHWIQTKDGQCGSPLVSTRDGFIVGIHSASNFTNTNNYFTSVPKNFMELLTNQEAQQWVSGWRLNADSVLWGGHKVFMVKPEEPFQPVKEATQL [D11R] | – | 0.0633 | 0.0699 | 0.0547 | 0.0514 | 0.135 | 0.078 | – | 0.0642 | – | 0.0514 | – | 0.0529 | 0.07 | 0.0798 | – | 0.0592 | 0.0504
MGESLFKGPRDYNPISSSICHLTNESDGHTTSLYGIGFGPFIITNKHLFRRNNGTLYVQSLHGVFKVKDTTTLQQHLVDGRDMIIIRMPKDFPPFPQKLKFREPQREERICLVTTNFQTKSMSSMVSDTSCTFPSGDGIFWKHWIQTKDGQCGSPLVSTRDGFIVGIHSASNFTNTNNYFTSVPKNFMELLTNQEAQQWVSGWRLNADSVLWGGHKVFMVKPEEPFQPVKEATQL [V57Y] | – | 0.0619 | 0.0539 | 0.0579 | 0.0699 | 0.124 | 0.0435 | 0.101 | 0.0703 | 0.0663 | – | 0.0581 | 0.101 | 0.0793 | 0.0714 | 0.0426 | – | 0.0435
MGESLFKGPRDYNPISSSICHLTNESDGHTTSLYGIGFGPFIITNKHLFRRNNGTLVVQSLHGVFKVKDTTTLQQHLVDGRDMIIIRMPKDFPPFPQKLKFREPQREERICLVTTNFQTLSMSSMVSDTSCTFPSGDGIFWKHWIQTKDGQCGSPLVSTRDGFIVGIHSASNFTNTNNYFTSVPKNFMELLTNQEAQQWVSGWRLNADSVLWGGHKVFMVKPEEPFQPVKEATQL [K120L] | – | 0.0576 | – | – | – | – | – | – | 0.05 | – | 0.0473 | 0.0335 | 0.0638 | 0.0652 | – | – | – | –
MGESLFKGPRDYNPISSSICHLTNESDGHTTSLYGIGFGPFIITNKHLFRRNNGTLVVQSLHGVFKVKDTTTLQQHLVDGRDMIIIRMPKDFPPFPQKLKFREPQREERICLVTTNFQTKSMSSMVSDTSCTFPSGDGIFWKHWIQTKDGQCGSPLVSTRDGFIVGIHSASNFTNTNNYFTSVPPNFMELLTNQEAQQWVSGWRLNADSVLWGGHKVFMVKPEEPFQPVKEATQL [K185P] | – | 0.0797 | 0.0641 | – | – | – | – | 0.0954 | – | 0.0643 | 0.06 | – | 0.0616 | 0.0807 | 0.0817 | – | 0.0679 | –
MGESLFKGPRDYNPISSSICHLTNESDGHTTSLYGIGFGPFIITNKHLFRRNNGTLVVQSLHGVFKVKDTTTLQQHLVDGRDMIIIRMPKDFPPFPQKLKFREPQREERICLVTTNFQTKSMSSMVSDTSCTFPSGDGIFWKHWIQTKDGQCGSPLVSTRDGFIVGIHNASNFTNTNNYFTSVPKNFMELLTNQEAQQWVSGWRLNADSVLWGGHKVFMVKPEEPFQPVKEATQL [S169N] | – | 0.0559 | 0.0527 | – | 0.0618 | 0.0594 | 0.0547 | 0.0615 | 0.0603 | 0.0377 | 0.062 | 0.0585 | 0.0618 | 0.0544 | 0.0628 | 0.0618 | 0.0536 | –
MGESLFKGPRDYNPISSSICHLTNESDGHTTSLYGIGFGPFIITNKHLFRRNNGTLVVVSLHGVFKVKDTTTLQQHLVDGRDMIIIRMPKDFPPFPQKLKFREPQREERICLVTTNFQTKSMSSMVSDTSCTFPSGDGIFWKHWIQTKDGQCGSPLVSTRDGFIVGIHSASNFTNTNNYFTSVPKNFMELLTNQEAQQWVSGWRLNADSVLWGGHKVFMVKPEEPFQPVKEATQL [Q59V] | – | 0.061 | 0.067 | 0.0563 | – | – | – | 0.0671 | 0.0738 | 0.0584 | 0.0539 | 0.0636 | – | – | 0.0648 | 0.0574 | – | –
